The list shows a part of the results.
Each sequence was assayed against T1, OsWOX13 (Oryza sativa, UniProt Q5QMM3 1-267) (assay: protein-binding microarray (RPBM); PBS, 2% BSA, 51.3 ng/ul salmon testes DNA, 50 uM zinc acetate, 200 nM TF, 25 C, 1 h; high values mean tight binding). Settings: protein: recombinant; tags: N-terminal polyhistidine and DsRed monomer fusion (pET32a); label: CyDye5-dUTP incorporated in the synthesized complementary strand; 3' TTTTT single-stranded linker to array surface; dsDNA, one strand shown.
T1 sequence: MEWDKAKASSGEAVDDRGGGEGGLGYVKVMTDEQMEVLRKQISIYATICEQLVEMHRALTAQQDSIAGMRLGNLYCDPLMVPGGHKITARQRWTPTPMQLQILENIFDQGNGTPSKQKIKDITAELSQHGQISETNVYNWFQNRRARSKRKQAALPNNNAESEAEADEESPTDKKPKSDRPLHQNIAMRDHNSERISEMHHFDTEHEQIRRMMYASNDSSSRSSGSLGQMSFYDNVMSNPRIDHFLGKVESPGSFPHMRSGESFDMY
In short: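 An Axon 4000B scanner gave the binding signal as per-feature fluorescence intensity in arbitrary units. This followed washing of a custom Agilent array that had been incubated for 1 h at 25 °C with 200 nM protein in PBS, 2% BSA, salmon testes DNA and 50 µM zinc acetate. The proteins were transcription factors fused at the N-terminus to polyhistidine and DsRed, expressed in E. coli BL21-CodonPlus and purified on Ni–NTA.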

| Sequence | binding signal |
| --- | --- |
| CACCACTCAAGATGCTCTGATTGGGCCATTGTGGTGTATGCGGAGTCACCTAGTGCAG | 16800 fluorescence intensity (a.u.) |
| TGAAGTACTAATCACATCTATCACCTCATTCAATGAGTAACGGAGTCACCTAGTGCAG | 8110 fluorescence intensity (a.u.) |
| TTGTAATAACTGTTAGAGCAGTGAATTACTACCATTTGTCCGGAGTCACCTAGTGCAG | 3300 fluorescence intensity (a.u.) |
| CGTCCAATCAAAATGATTCATCAAATCCTACACGTTGGTGCGGAGTCACCTAGTGCAG | 36600 fluorescence intensity (a.u.) |
| TTCGATCCTGACTGGAATTGGATGCCTAGTTTGCCTTGCCCGGAGTCACCTAGTGCAG | 4190 fluorescence intensity (a.u.) |
| GATTGATGGACGGCTCAGATTGTTCTTGCGCCGGTAAAGTCGGAGTCACCTAGTGCAG | 23300 fluorescence intensity (a.u.) |
| CTTCCTAATTGCAGTAGAAACACTTGCTTTCACATATTTCCGGAGTCACCTAGTGCAG | 8170 fluorescence intensity (a.u.) |
| CTACTGATTGTATTGATTGGGTAGCTGGATTGAAGTTAATCGGAGTCACCTAGTGCAG | 57000 fluorescence intensity (a.u.) |
| ATTAAATTTTAGACGATACTATCTTGTCCAATTACTCATACGGAGTCACCTAGTGCAG | 6840 fluorescence intensity (a.u.) |
| CCTTTATATCATTATTTACATTGGACATATAGTCGATTGCCGGAGTCACCTAGTGCAG | 3240 fluorescence intensity (a.u.) |
| TGGAATTGTATTGGCTGATAGATACATACCATTTCTAACTCGGAGTCACCTAGTGCAG | 9180 fluorescence intensity (a.u.) |
| TTGTGTTGATGGATGATGCGATATCCTCTTCAGTGAATGCCGGAGTCACCTAGTGCAG | 8900 fluorescence intensity (a.u.) |
| AGATTGATTAGTACCACCTCGGCTAGCGGAGGAAGGGCACCGGAGTCACCTAGTGCAG | 40500 fluorescence intensity (a.u.) |
| GTTAATAATTTCACCGGACTTTATATATCTACTCCTTCGCCGGAGTCACCTAGTGCAG | 7960 fluorescence intensity (a.u.) |
| ATGCTTTGATTGAAATCAAGTACTCTGAAGCTAGTCATTCCGGAGTCACCTAGTGCAG | 56700 fluorescence intensity (a.u.) |
| CGTGCAGATTGGACAAAGCTAGCTACTACCACCGTCGCAACGGAGTCACCTAGTGCAG | 7640 fluorescence intensity (a.u.) |
| TCGGACTAAATATTGACTTAGACTGCAAGTTGTAATCGTTCGGAGTCACCTAGTGCAG | 4390 fluorescence intensity (a.u.) |
| ATCGTGATGGACTGATGGCTTCGTGTTCGCTGGGACCGGCCGGAGTCACCTAGTGCAG | 20900 fluorescence intensity (a.u.) |
| CGATTATTCGTTCCATCATGATTGGGGTAGGTTAGTTAGGCGGAGTCACCTAGTGCAG | 5540 fluorescence intensity (a.u.) |
| ATGACATATTGATGTGATAGAAAATGACGGAAGTTTGAATCGGAGTCACCTAGTGCAG | 15400 fluorescence intensity (a.u.) |
| TGCATAAGTGTTAAATTGACAGCCACTTGGTCTGTTCGTTCGGAGTCACCTAGTGCAG | 21700 fluorescence intensity (a.u.) |
| GGTCGGGCCGCATTGATTGCACATCTTGTCCTCATGCCTTCGGAGTCACCTAGTGCAG | 5260 fluorescence intensity (a.u.) |
| CCTTGAACATGTGAGTGACAATTAAGGGAGACATTGATCTCGGAGTCACCTAGTGCAG | 4520 fluorescence intensity (a.u.) |

— PMC7819943, “Rice protein-binding microarrays: a tool to detect cis-acting elements near promoter regions in rice”
